This is one part of the list. At the low end of the ranking the order means little. The protein was read in a cell extract, so binding may be indirect.
Molecular target: T1, HNF4alpha2 (COS-7 nuclear extract) (UniProt P41235)
T1 sequence: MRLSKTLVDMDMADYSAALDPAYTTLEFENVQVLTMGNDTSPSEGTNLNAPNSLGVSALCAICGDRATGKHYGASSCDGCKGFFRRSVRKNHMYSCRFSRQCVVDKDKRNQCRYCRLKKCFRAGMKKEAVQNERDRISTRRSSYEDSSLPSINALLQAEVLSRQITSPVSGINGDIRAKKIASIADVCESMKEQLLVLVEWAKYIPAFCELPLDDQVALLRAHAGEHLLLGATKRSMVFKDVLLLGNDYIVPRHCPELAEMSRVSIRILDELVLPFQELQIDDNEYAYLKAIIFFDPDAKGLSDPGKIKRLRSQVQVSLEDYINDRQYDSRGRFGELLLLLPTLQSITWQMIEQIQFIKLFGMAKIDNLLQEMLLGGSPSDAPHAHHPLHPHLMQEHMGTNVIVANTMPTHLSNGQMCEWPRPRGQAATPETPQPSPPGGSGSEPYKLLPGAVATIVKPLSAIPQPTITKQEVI
Experiment: protein-binding microarray
Conditions: COS-7 nuclear extract on double-stranded Agilent 4x180k PBM; binding buffer, salt, pH and temperature not given; high values mean tight binding; double strand, one strand shown; sequences stand for … in …GCCTAGGGAGATTAGAGTATCGGTCGA

Sequence	binding signal (log2 normalized intensity)
GTAGTTACAGCTCATTAATCATCCGTCACC	-1.31
GTGGACACAAAAAGGCTGTCACACTTGCCC	0.498
TATGAGCGGCGCTGACCCCGGGAGCAGCAT	1.05
GGAGAGCTAGTAAGGAGCTGAGTCATAGTG	-0.825
ACACCATTAGAGAACATGTACTTTGTACTG	5.83
AAGGGTCAAGGGTCATTTGTTTTTACAGAC	6.27
TGCAGCTGCTGCCCAAAGGTCACCTCTTCA	3.63
ATATAACCCTTGAACCTTCTTCTTGCAGTC	2.64
GCCATTGTCCTTTGGGCTCATCCATTTTCC	1.35
AGGGCATATTGACTGCCCCAACGCCTCCTT	1.64
CCCAGGGGCTCCCACCAGGGGGAGGCTCAG	-1.16
GGTGTAGGTGCTGCACCTTGAAACCCCTCC	3.14
AGAATGCGAACCATTTCCCATGGGACTGGC	-1.22
GCACGCTTAGGGAACAAAGGTCAGTCCCGC	6
TATGACCAGTGTGTTGTGCTGACCTCCTGT	3.19
TTGACTGCAGAAGATAAGAATCTCTTTGTA	-1.11
GCAAGCTTGACCTTTGATCCAGGCTCAGTG	7.48
TATACAGTTGTGGGTATGTCTGTAGGTAAG	1.69
TCTGCCCCTTATCTTCTGGCCACCTCTTCC	1.69
ATCCTGGCTCTCCCACTTATCAGCCATGTG	-1.12
AGGTAACATACCAAAAAGCATAACTGTATA	-1.01
GCGGCTTCAGAGGCCAGCAGTGCTTTTCCC	-0.963
AGTAACACAGTAAGAGACTTCACCATCTGC	-1.1
CTGGGATGAGATACCCATTCACATGACCTT	3.29
TCCTCAGGGAATTTCTAGGTTTGATCTTTG	2.95

Sequence	binding signal (log2 normalized intensity)
GGAGTGTGGGGTGGTGTCAGGAGTACAGGT	1.29
GCAGACTTAGACCCTGACCTGGCATATCTC	1.69
TGTTGAATACTTGGAGACAGTGAGACGCAA	-1.1
GAGGATTAGTGGGAGATAAGGTGGAAAGAC	-1.16
TTTCAAACACCTGGGTCTGACCTCTTTCAA	2.54
CTTCTCTGCCTCAGAACTTCACTCAGTGGG	1.64
AAGGTTGACACCTAGCTGAGCAGGGGACTA	-1.13
CAAGAATGCGTCATCCGCATCTGAAGATAA	-1.16
CACCTTTGGATCCAGCTCCTGATGTTTGGT	2.02
TCTGACTGGCCCAGCCTGGCCTCTAGAGTG	-1.19
GATAAGAGCAAGAAACAGCAAATGCTTTTA	-1.01
CTTTGGTATGGACTGATATTCAAACAGGTC	1.31
GAGCAAATACAGCACTCAAATGATCAAAGA	-1.13
GAATGTCGTGCCCTAATCTCACTCTTTGTT	1.08
AAACCCAAGATTTGGTGTTACCTTTGGACT	5.71
AATTCTAGTCCTATCACTGTCTAGCTGTGT	0.987
CTGTCATGGTGCTGGCGGGAGCATAGCAGC	0.301
CCATTTGCGCTGGTTTTATGGTGTCTTATC	2.04
CCAGACCAAGAGCTTAACCTTTGCCATGTG	3.61
CTCTGTCATGTTCAATATACAGTTGGTATT	2.13
GCAGATGCTGGGCAAAGGGCAAGGCGTCTC	2
TTTCACGATAAAATACACAGGTAAACATTT	0.544
TTCAAATTCTTTGCCATGACCTTTGAAGCC	6.75
GGGATTGGGGATGCTCAAAGTACACTTGGA	0.615
CCAGATGATCTTTACCCTGGAATGCTGTTA	1.33

Sequence	binding signal (log2 normalized intensity)
TTTGGGCGGGGAAAAGGGAGTAAAGGTCAC	5.36
AGGACCTTGGGTTCATTTTACAATGCAAAC	1.18
TGTCCCTCCTCAACCTCTCCAATGCTATGC	1.48
GCAGGCATACCAGGCAGAGGGTTAACCCCT	2.86
CATTCCTTTCTAATCTCAAAGTGTCAGTCC	2.04
ATAAAGTCCAAACCCCTATGTTTAATGTAT	2.12
GAAAACAAACATTAGCTGCAGATTCCACCT	-1.13
GAGCAGTGAATGTTGAAGTCCCACGGCAAC	-1.1
AAGAAGCGTCAGTTGCCTCGCCAGAGATAA	-1.12
CAGTGGTAATGGAGCTGAAACTATAAACTT	-0.653
ATTTCTTTTAATGTGTGCTTTCAGGTGTGA	2.11
TTCAAGGAGCTCGGCGCCAGGAAGCAATGG	-0.203
ATAACCATGCTCAACATCAAAGGCCTTCCT	-1.21
GCTCTTCAATGCATTCCTGAAGCCTTCCTT	0.321
GAACAAGGCTGAAGGGAAGCTCTGGGAGTG	-1.24
TGGGCAGAGACTATGTGGTTTTGTAAATAT	1.6
TCTATGTCCACAGAAAGGCAAGAAGTATGA	0.253
CTAGCACCTGTGGATGCAGGTCTACCTTAT	0.31
AGCCTAGACTCAACACCCAGGCTTATCTCA	-1.17
GGGGCAGGCAGGGGATGAGATCTGAAGATA	-0.99
CCAGTTCCAAAGTCCAGGTGCTTTCTTCTT	4.64
AAGAAGTATGAAAGATGACTACCAGGTTCT	-0.936
AGGTTCTCATACCTTCTGCTTCAGTTTTGC	1.03
GCTCCGCTTACTCGGCCTGGACCCCTCCGG	0.866
ACACTGCAGGCTCTGTCCCCGCCCAGCAGA	2.77

Sequence	binding signal (log2 normalized intensity)
GGCAGAAGGTTCCAGGGAACTGTCCACCAA	-1.12
CTGCCATAAGCGAAGATAACCTACTTAAAA	-1.2
TGTAAGAAGTGTAAAAAGATAAGATGTACC	0.662
TAAATTCCAGAAAGCAACAAAAACCAAATC	-0.18
CAACCCTTGTCACTTTCCCTTTGTCTCCAG	1.23
TTGGGCTGCACCCTGACTAAATTCTTGTCA	-0.979
GCAGGGCTGCCTCGCTTCCGGGTGGGAGCT	-1.12
AAGGCAGGAGATTCCACATTCCCTTCTTAG	-1.11
AGTTAGGCAGGATGGGGTCATGATAAGAGC	0.491
GCAGAATGAGCAAGGTGGGTTCAGAGACCC	-0.724
TCTTCCTAGGCAATCCCATGACCTTTGTAC	8.78
TCAACCTCTCTGGGGGATGGGTCCACACAG	1.55
GGGAGATAGTCTGAGAGTCACTGCCTTATC	-0.676
TAAAATGCCCTCACAGGTTCCAGCATGGAC	1.12
CCAACAGAGTCATCACAATAGGGAAACAGC	-1.08
CCTCCTAATCACTGCCCTTTGGTGCCTCTT	2.28
TCCCTAAGTACACACTGTACCCGTCCACCT	1.47
CACAAGGATCCCATTCATGTGGGTCAACAG	0.413
CCGAGGAACCCAGACTGCATTTTCATCTTG	-1.01
GCATCTGTTGCTCAAGGAGGCCCAAAGGAA	0.136
AAAAGATTAAGTTATCCATGGAGTGTGAAA	0.956
CAAGATCCTAGTCTTTAGAGTAACCATTCT	-0.157
ATCAATAAAAGGTCCAGAGTTCACTGCAGG	3.16
TGAAGGGGGCGGGGGCGAAAGGGAGGGGGC	-1.22
TTCAAAGCCAGGACTTTCAGGAATGCACCC	0.687

Sequence	binding signal (log2 normalized intensity)
AGATCAGTAGCTAGGAGACAACTTAGAATT	-1.16
TTAATGGAAATGCCTAGGATACCTAGTAGG	-0.491
GTGTTTACTGGGGGCCACCATATGTATGTG	-0.127
GAGCCCTCTGATCTGACCCCTTCTTGACCT	4.55
ATTCCTAGATATCAGGAAGGTCAGAAAGCA	-0.0278
AGTATTACCATGTCCTGTGATTAAGGTCAA	2.32
TCTCTCTTTTTCTGAGCCTGGGTCACCCCT	2.15
ACAAGTATACCTGTACACTTACAAGTGTAC	0.94
ACAGCTTTGGGCATACAAAACAACCACTCT	-1.1
CAGAGGAGGCACTTGTCTCACATCTGATAG	-0.0984
AAAACAGCCCTAACCAGGGGTGGGGACCTT	-0.891
TAAGAGGCATGAGGTTCTTGTAAGGTTCTT	0.28
CGAGGAGGCTGAGGCAGGATGACTGCTTGA	-1.15
TAGCCTAAACTATCTGGTGCGGTCCAAGAC	-1.3
GTCAGGACCTTTCTTTATGGACCTTGTCCC	5.94
CTCTCTTCTTGTAATCCCATTTCCCTTGTT	2.36
TCAGTTGGTCCAAGGTACATGTCTCTGCTC	1.73
TACTCTTATCAGCAGTGACTTGAGAGGCCA	1.13
CTCCAACATGACCACCTGGTTTAAGTCACT	-1.08
CAATGAGAAACCTCAAAGGTTAGGGGGATT	-1.25
TTGCACCCAGGCCGTTGGACCAAGCTCTAG	-1.15
CCAAAGAGAAGCCTAAGCAGGGCTAGACTT	-1.18
TCTTGCTTCGCTCTCTTCTGGTGATCAAAC	0.274
CGAGCTGAGGCCAGACAGGGGGGCGCCTAC	-1.05
GCTGGGTATACTGACTAGGACAGAGCAGAT	-0.403

Sequence	binding signal (log2 normalized intensity)
GGGTAGGCAGACAGGTTGGAGACGCAGAGA	-1.1
ACTTCAGCCTTTGAGAAGCAGGAGCATGGG	-1.12
GTCTCTGCTCCTAAAATTATGCCATTCTTT	0.0244
GTCAGGGCTAGGCTGATAAGGAGGGTAACA	-1.06
GAGTTATTTCATAGACTGTCCCTCAGTGTG	1.92
GAAGTCCAGTAGCTCAATCAAGGTTCACTG	1.17
AACAGCACAAGCAATGGCTGGGTCTAAGGG	-1.02
GCAAAGATCACCTGGTGGCCATCAAGCAGA	-1.13
GACCTTCGGCCTCAATTATAACTCATGTTC	3.32
ATTTCTGAGAGAGAAAGAGACAGAGAGAGA	-1.19
TGGACTTTCAACTGCAGGGGGGTGGGCACC	1.78
AATCTGGCTGCAGAGTCCAAGATGCTGTCT	1.27
AGAGCAAAGGTTACTGCAGAGAAGAAGCTT	0.595
ACGCCAGCAGCAGGGTCAGAAGGGAGGTAG	-1.14
TATTTCACCCCAGCAAACAGGTCCTGCTGG	-1.12
CCACAGATGATCAAAGGTCAGTCTTAGGAC	4.8
CCGCGGCGGGCCCTCGACCTTTGCCCTCCA	9.87
TCAATTATCACCACACAGCACGTAATAGTT	-0.161
TCAAGATTTTACCTACTTCCTTTATTCACT	-1.23
TATTAGGCATTTCATTTGCCCAGCTGTTCC	-0.0445

From publication PMC10726135
